Measurements as given in article PMC4336329 (PLoS ONE, 2015).
Among all 310,000 compounds or so, about 2,200 (0.71%) showed an effect of 50% or more. Effects have a minus sign here. This is one part of the list.

Each molecule was assayed against human ether-à-go-go-related gene (hERG) potassium channel (human, UniProt Q12809) (assay: primary screen, population patch clamp on CHO cells stably expressing hERG).
Sequence of human ether-à-go-go-related gene (hERG) potassium channel (Q12809 whole entry, looked up): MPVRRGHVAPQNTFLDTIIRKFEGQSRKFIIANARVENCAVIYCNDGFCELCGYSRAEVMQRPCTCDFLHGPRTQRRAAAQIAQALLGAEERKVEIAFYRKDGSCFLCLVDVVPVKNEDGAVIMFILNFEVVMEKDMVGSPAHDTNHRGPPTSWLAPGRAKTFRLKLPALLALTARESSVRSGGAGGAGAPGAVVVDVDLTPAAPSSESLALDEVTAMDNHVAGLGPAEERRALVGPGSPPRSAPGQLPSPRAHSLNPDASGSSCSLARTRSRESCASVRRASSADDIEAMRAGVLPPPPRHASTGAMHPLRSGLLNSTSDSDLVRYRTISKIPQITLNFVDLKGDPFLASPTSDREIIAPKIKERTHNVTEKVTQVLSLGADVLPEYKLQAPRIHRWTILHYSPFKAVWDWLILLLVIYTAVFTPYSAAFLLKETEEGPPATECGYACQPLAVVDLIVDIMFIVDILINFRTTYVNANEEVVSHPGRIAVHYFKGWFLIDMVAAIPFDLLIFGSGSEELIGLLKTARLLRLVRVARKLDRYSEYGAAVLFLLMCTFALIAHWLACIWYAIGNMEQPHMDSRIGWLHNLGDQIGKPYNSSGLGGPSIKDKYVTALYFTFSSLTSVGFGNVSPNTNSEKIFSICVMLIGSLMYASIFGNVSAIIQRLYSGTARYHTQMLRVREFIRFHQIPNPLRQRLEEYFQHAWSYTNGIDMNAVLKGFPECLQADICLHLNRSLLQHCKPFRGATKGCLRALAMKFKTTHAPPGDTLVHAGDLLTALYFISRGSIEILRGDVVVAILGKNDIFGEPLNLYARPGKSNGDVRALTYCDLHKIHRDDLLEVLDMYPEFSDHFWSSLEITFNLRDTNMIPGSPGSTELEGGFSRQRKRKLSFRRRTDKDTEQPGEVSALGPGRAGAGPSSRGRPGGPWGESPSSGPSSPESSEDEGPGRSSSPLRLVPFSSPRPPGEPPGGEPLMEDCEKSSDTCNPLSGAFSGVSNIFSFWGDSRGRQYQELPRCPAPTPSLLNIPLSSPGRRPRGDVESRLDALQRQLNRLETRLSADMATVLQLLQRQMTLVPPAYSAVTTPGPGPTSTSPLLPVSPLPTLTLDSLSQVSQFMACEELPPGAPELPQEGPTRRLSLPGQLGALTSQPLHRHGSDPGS

SMILES | hERG current change (%, negative = inhibition) at 1uM
Cc1sc2nc(CSc3n[nH]c(N)n3)[nH]c(=O)c2c1C | 6.27%
O=C(COc1ccc([N+](=O)[O-])cc1)Nn1cnnc1 | 19.3%
Nc1c(-c2ccc(Cl)cc2)cnn1-c1ccccc1 | 13.4%
COc1ccc(NC(=O)CSCC(=O)Nc2sccc2C#N)cc1 | 10.6%
O=C(CC1Nc2ccccc2NC1=O)Nc1ccccc1NC(=O)CC1Nc2ccccc2NC1=O (stereo not shown) | 7.68%
CCOC(=O)c1ccccc1NC(=O)c1ccc(N(C)S(C)(=O)=O)cc1 | 6.53%
COc1ccc(C(CNC(=O)C(C)Oc2ccc(Br)cc2)N2CCCC2)cc1 (stereo not shown) | 7.22%
Cc1cccc(OCC(=O)NCCCNC(=O)c2ccco2)c1 | -0.79%
C=CCOc1ccc(/C(O)=C2/C(=O)C(=O)N(CCCn3ccnc3)C2c2ccco2)cc1 (stereo not shown) | 9.31%
N#Cc1c(-c2ccccc2)cc(C2CC2)nc1SCC(=O)O | 15.3%
CN1CCN(S(=O)(=O)c2ccc(N(C)Cc3cccc(F)c3)nc2)CC1 | -5.53%
c1ccc(CN2c3ccccc3-c3nc4ccccc4n3C2c2ccccn2)cc1 (stereo not shown) | 2.51%
COc1ccc(OC)c(S(=O)(=O)N2CCCC(C(=O)NCCN3CCOCC3)C2)c1 (stereo not shown) | 15.8%
CCCCNC(=O)C(CC)Sc1nc2sc(C(=O)OC)c(C)c2c(=O)n1N (stereo not shown) | -2.28%
O=C(CN1c2cccc3cccc(c23)S1(=O)=O)Nc1cccc(S(=O)(=O)N2CCOCC2)c1 | 13.4%
O=C(/C=C/c1ccc(O)cc1)OCc1occc(=O)c1O[C@@H]1OC(CO)[C@@H](O)[C@H](O)[C@@H]1O (stereo partly shown) | 12.9%
Cc1ccc(NC(=O)CC(NCCN2CCOCC2)C(=O)O)cc1Cl (stereo not shown) | 13.1%
CC(=O)CC(c1ccccc1)c1c(O)c2ccccc2oc1=O (stereo not shown) | 15.1%
CCN(CC)S(=O)(=O)c1cc(NC(=O)CNc2c(C)n(C)n(-c3ccccc3)c2=O)ccc1C | 16.4%
CCCCCCC1(C)NC(=S)N(c2ccccc2)N1 (stereo not shown) | 12.3%
Cc1nnc(SCCC(=O)Nc2ccc(Cl)cc2)o1 | 22%
O=C(N/N=C/c1ccc2c(c1)OCO2)c1ccc(COc2cccc3cccnc23)cc1 | -6.17%

SMILES | hERG current change (%, negative = inhibition) at 1uM
CN(C)S(=O)(=O)N1CCCC(C(=O)c2ccc(-c3ccccc3)cc2)C1 (stereo not shown) | 1.29%
CCN(CC)C(=O)c1ccc(NC(=O)c2ccc(-c3nn(C)c(=O)c4ccccc34)cc2)cc1 | 12.1%
CN(C(=O)COC(=O)c1cnc(Cl)c(Cl)c1)C1CCS(=O)(=O)C1 (stereo not shown) | 8.97%
Cc1cc(C)nc(SCc2nc3nc(C)cc(C)n3c2Br)n1 | -1.33%
Cc1ccc(NC(=O)c2cc([N+](=O)[O-])ccc2NCc2cccnc2)cc1 | -17.3%
C#CC(=O)N(c1ccc(OC)cc1OC)C(C(=O)NC1CCCC1)c1cccs1 (stereo not shown) | 6.01%
Nn1c(SCC(=O)N2CCCc3ccccc32)nncc1=O | 11.7%
N=C1C(c2nc(-c3ccc(F)cc3)cs2)=C(O)CN1Cc1ccc(Cl)cc1 | 6.82%
CCC(c1nnc(SCC(=O)N2CC3(C)CC2CC(C)(C)C3)o1)N(C)C (stereo not shown) | 1.36%
Cc1cc2c(=O)oc(-c3ccc(F)cc3)nc2s1 | 10.1%
O=C(Nc1nc(-c2ccco2)c(-c2ccco2)s1)C1CC(=O)N(c2ccc3c(c2)OCCO3)C1 (stereo not shown) | 12.6%
CC(C)c1ccccc1NC(=O)Cn1c(-c2ccccc2Cl)nc2ccccc21 | 3.65%
O=C(O)c1ccccc1-c1ccccc1C(=O)Nc1ccc2c(c1)CCC2 | 14.3%
COc1ccccc1N1CCN(C(=O)c2ccco2)CC1 | 12.8%
CC1CCc2c(sc(NC(=O)c3ccc(Cn4cc(Br)cn4)o3)c2C(N)=O)C1 (stereo not shown) | 4.35%
Cc1nc(Nc2cccc(O)c2)c2c3c(sc2n1)CCC3 | 12.8%
OCCC1CN(Cc2cnn(-c3ccccc3Cl)c2)CCN1Cc1ccsc1 (stereo not shown) | 6.92%
CCN(CC(=O)NCCC1=CCCCC1)S(=O)(=O)c1ccccc1 | 3.77%
CCOC(=O)c1cn(Cc2cccc(Cl)c2)nn1 | -0.868%
O=C(Nc1ccc(CN2CCS(=O)(=O)CC2)cc1)c1ccc(C(F)(F)F)cc1 | 12.2%
CC(Sc1ccccc1)C(=O)N/N=C/c1ccccc1 (stereo not shown) | 11.1%
